For part of its entries the source gives two or more results. They are shown here; other results are not. There may be further records. Values that stand side by side appear to be repeats on other runs, samples or individuals.
Molecular target: EGVD/AE-ACT
Assay: reaction of the protease with the serpin bait EGVD/AE-ACT

B1: chymase C22S/L99H/F173L/K192R/Y215H/R217T/S218V/A226R (enzyme)
chain: IIGGTESKPHSRPYMAYLEIVTSNGPSKFCGGFLIRRNFVLTAAHCAGRSITVTLGAHNITEEEDTWQKLEVIKQFRHPKYNTSTHHHDIMLLKLKEKASLTLAVGTLPFPSQFNFVPPGRMCRVAGWGRTGVLKPGSDTLQEVKLRLMDPQACSHLRDFDHNLQLCVGNPRKTKSAFRGDSGGPLLCAGVAQGIVSHGTVDAKPPRVFTRISHYRPWINQILQAN
  k*app (second order rate constant): 341 and 2410 [lines of one column]

From US20240117334A1, “FACTOR B PROTEASES” (Vertex Pharmaceuticals Incorporated, priority 2021, published 2024)
